Laboratory results reported in the supplement of paper PMC9938546.
Where a name gives a salt, the structure may show the parent alone. This is one part of the list. Many values rest on one well or one pass, so single values are uncertain.

The compounds below were run on HCT116-GFP (assay: HCT116-GFP viability (GFP intensity) relative to untreated control, monoculture; higher = less cancer cell killing). Settings: culture: HCT116-GFP monoculture; 10 µM; 72 h.
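Also: viability estimated indirectly by image-based GFP quantification with live-cell imaging of the constitutively GFP-expressing human colorectal cancer line, no immune cells added.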

SMILES	HCT116-GFP viability [%]
CC(=O)CC(c1ccccc1)c1c(O)c2ccccc2oc1=O (configuration not stated) [Warfarin]	104
CCN(CC)CC(=O)Nc1c(C)cccc1C [Lidocaine hydrochloride]	109
c1ccc2c(CC3=NCCN3)cccc2c1 [Naphazoline hydrochloride]	86.6
CC(=O)OCC(=O)[C@@]12OC(C)(C)O[C@@H]1C[C@H]1[C@@H]3C[C@H](F)C4=CC(=O)C=C[C@]4(C)[C@@]3(F)[C@@H](O)C[C@@]12C [Fluocinonide]	99.5
C=CC1=C(C(=O)O)N2C(=O)[C@@H](NC(=O)/C(=N\O)c3csc(N)n3)[C@H]2SC1 [Cefdinir]	91
Cc1cn([C@H]2C=C[C@@H](CO)O2)c(=O)[nH]c1=O [Stavudine]	104
CC(=O)NS(=O)(=O)c1ccc(N)cc1 [Sulfacetamide sodic hydrate]	95.4
COc1cccc2c1C(=O)c1c(O)c3c(c(O)c1C2=O)C[C@@](O)(C(C)=O)C[C@@H]3O[C@H]1C[C@H](N)[C@H](O)[C@H](C)O1 [Daunorubicin hydrochloride]	6.12
CCCOc1cc(N)ccc1C(=O)OCCN(CC)CC [Propoxycaine hydrochloride]	90.7
OC(Cn1cncn1)(Cn1cncn1)c1ccc(F)cc1F [Fluconazole]	95.6
NCCc1c[nH]cn1 [Histamine dihydrochloride]	101
CC[N+](C)(C)c1cccc(O)c1 [Edrophonium chloride]	102
Cc1cn[nH]c1 [Fomepizole]	92.5
CC[N+](C)(CC)CCOC(=O)C1c2ccccc2Oc2ccccc21 [Methantheline bromide]	86.8
CCCCN(CCCC)CCCOC(=O)c1ccc(N)cc1 [Butacaine]	91.5
Cc1ccc(C(=O)c2ccc(CC(=O)O)n2C)cc1 [Tolmetin sodium salt dihydrate]	85.9
COC(=O)Nc1nc2cc(C(=O)c3cccs3)ccc2[nH]1 [Nocodazole]	10.4
CC(=O)OCC(=O)[C@@]1(O)CC[C@H]2[C@@H]3CCC4=CC(=O)CC[C@]4(C)[C@@]3(F)[C@@H](O)C[C@@]21C [Fludrocortisone acetate]	94.2
C=CC(N)CCC(=O)O (configuration not stated) [Vigabatrin hydrochloride]	92.2
NS(=O)(=O)c1cc(C2(O)NC(=O)c3ccccc32)ccc1Cl (configuration not stated) [Chlorthalidone]	90.9
CCN[C@H]1CN(CCCOC)S(=O)(=O)c2sc(S(N)(=O)=O)cc21 [Brinzolamide]	84.9
Cc1ncc(C[n+]2csc(CCO)c2C)c(N)n1 [Thiamine hydrochloride]	109
CC(C)c1c(C(=O)Nc2ccccc2)c(-c2ccccc2)c(-c2ccc(F)cc2)n1CC[C@@H](O)C[C@@H](O)CC(=O)O [Atorvastatin]	66.6
CC(=O)OCC(=O)[C@@]1(O)CC[C@H]2[C@@H]3CCC4=CC(=O)CC[C@]4(C)[C@H]3[C@@H](O)C[C@@]21C [Cortisol acetate]	104

SMILES	HCT116-GFP viability [%]
CCCc1cc(C(N)=S)ccn1 [Prothionamide]	97.3
CC(=O)S[C@@H]1CC2=CC(=O)CC[C@]2(C)[C@H]2CC[C@@]3(C)[C@@H](CC[C@@]34CCC(=O)O4)[C@H]12 [Spironolactone]	84.8
CC(Cc1cccc(C(F)(F)F)c1)NCCOC(=O)c1ccccc1 (configuration not stated) [Benfluorex]	104
NNCCc1ccccc1 [Phenelzine sulfate]	103
C[C@H]1O[C@H](O[C@H]2[C@H](O)[C@@H](O)[C@@H](O[C@H]3[C@H](O)[C@@H](O)C(O)O[C@@H]3CO)O[C@@H]2CO)[C@H](O)[C@@H](O)[C@@H]1N[C@H]1C=C(CO)[C@@H](O)[C@H](O)[C@H]1O (some centres not stated) [Acarbose]	109
CN1CCC(=C2c3ccccc3C=Cc3ccccc32)CC1 [Cyproheptadine hydrochloride]	76.6
N=C(N)NC(=N)NCCc1ccccc1 [Phenformin hydrochloride]	83.9
CC(C)(C)NC[C@@H](O)COc1cccc2c1CCCC2=O [(+) -Levobunolol hydrochloride]	92.4
CO[C@H]1/C=C/O[C@@]2(C)Oc3c(C)c(O)c4c(O)c(c(/C=N/N5CCN(C6CCCC6)CC5)c(O)c4c3C2=O)NC(=O)/C(C)=C\C=C\[C@H](C)[C@H](O)[C@@H](C)[C@@H](O)[C@@H](C)[C@H](OC(C)=O)[C@@H]1C [Rifapentine]	78.2
O=C(O)Cc1ccc(-c2ccccc2)cc1 [Felbinac]	96
C[C@@H]1C[C@H]2[C@@H]3C[C@H](F)C4=CC(=O)C=C[C@]4(C)[C@@]3(F)[C@@H](O)C[C@]2(C)[C@@]1(O)C(=O)CO [Flumethasone]	100
O=C(O)c1cn(-c2ccc(F)cc2)c2cc(N3CCNCC3)c(F)cc2c1=O [Sarafloxacin]	93.1
C[N+]1(C)CCC(OC(=O)C(O)(c2ccccc2)C2CCCC2)C1 (configuration not stated) [Glycopyrrolate]	88.2
N#Cc1ccc(C(c2ccc(C#N)cc2)n2cncn2)cc1 [Letrozole]	105
Clc1ccc(CCC(Cn2ccnc2)Sc2c(Cl)cccc2Cl)cc1 (configuration not stated) [Butoconazole nitrate]	70.3
CN1CCN(C2=Nc3ccccc3Oc3ccc(Cl)cc32)CC1 [Loxapine succinate]	105
N=C(NCCCCCCNC(=N)NC(=N)Nc1ccc(Cl)cc1)NC(=N)Nc1ccc(Cl)cc1 [Chlorhexidine]	24.3
NCc1ccccc1CC(=O)N[C@@H]1C(=O)N2C(C(=O)O)=C(CSc3nnnn3CC(=O)O)CS[C@H]12 [Ceforanide]	89.4
CC(=O)Oc1ccccc1C(=O)Nc1ncc([N+](=O)[O-])s1 [Nitazoxanide]	61.3
CC(N/C(=N\C#N)Nc1ccncc1)C(C)(C)C (configuration not stated) [Pinacidil]	92.3
CCCCC(O)c1ccccc1 (configuration not stated) [Fenipentol]	96.3
CCN(CC)CCOC(=O)C1(C2CCCCC2)CCCCC1 [Dicyclomine hydrochloride]	101
CN(C)CCCN1c2ccccc2Sc2ccc(C(F)(F)F)cc21 [Triflupromazine hydrochloride]	31.8
